Test results taken from patent US20210309755A1 (FRED HUTCHINSON CANCER CENTER, published 2021).

Key:
[1] = biological target: T1, MSLN-Avi ectodomain (human ectodomain of MSLN) (human, UniProt Q13421 296-598); assay: SPR, Biacore T100, 25 C, antibody captured on goat anti-human Fc, MSLN-Avi as analyte
[2] = biological target: T1, MSLN-Avi ectodomain (human ectodomain …); assay: written beside the aligned structure; no assay named on the sheet (the value is that of the SPR fit of FIG. 7D)
[3] = biological target: T1, MSLN-Avi ectodomain (human ectodomain …); assay: SPR, Biacore T100, 25 C; amatuximab captured on goat anti-human Fc (81.9 +/- 0.6 RUs), MSLN-Avi as analyte 0.20-50 nM in duplicate (50 nM in triplicate, long dissociation in the inset), 1:1 fit

T1 sequence (Q13421 other isoform, or with tags, fused parts or gaps): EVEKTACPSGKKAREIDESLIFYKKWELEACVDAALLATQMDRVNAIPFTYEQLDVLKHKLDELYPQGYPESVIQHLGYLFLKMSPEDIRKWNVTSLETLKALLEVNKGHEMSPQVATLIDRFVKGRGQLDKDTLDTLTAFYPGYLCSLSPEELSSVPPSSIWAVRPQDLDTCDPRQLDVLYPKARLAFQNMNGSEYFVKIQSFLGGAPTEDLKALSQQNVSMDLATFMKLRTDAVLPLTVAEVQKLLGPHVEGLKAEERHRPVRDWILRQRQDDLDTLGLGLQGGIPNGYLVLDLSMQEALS

B1: amatuximab (antibody, V domains shown)
VH: not shown
VL: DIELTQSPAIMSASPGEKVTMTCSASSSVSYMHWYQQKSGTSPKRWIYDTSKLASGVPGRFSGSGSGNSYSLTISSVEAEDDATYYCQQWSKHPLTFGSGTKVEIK
In the case of B1, the “fold higher binding affinity (lower KD) than the 1A12 anti-MSLN antibody” value [1] is reported as about 600 fold, the Kd [2] is reported as 0.112 nM and the Kd [3] is reported as 0.112 nM. It also gave a koff [3] of 5.33e-05 s⁻¹ and a kon [3] of 474000 M⁻¹ s⁻¹.
